Results from PubChem BioAssay AID1463 (National Center for Advancing Translational Sciences (NCATS), 2008).
The whole screen tested about 280,000 compounds, of which about 2,600 (0.93%) were called active. About 8% were inconclusive and are not listed. Calls follow the shape of the dose curve; as a rule, active = well fitted curve in the direction sought with a large enough effect; inconclusive = small, poorly fitted or top-dose-only effect; inactive = flat fitted curve, though single readings scatter. This is a selection; strong and weak results do not stand in their true shares.

Experiment: Counterscreen qHTS for Inhibitors of Tau Fibril Formation, Fluorescence Polarization; also: nearly all actives have a fitted effect of over 55% in size
Conditions: tau K18 P301L (four-repeat tau fragment) Alexa594 fluorescence, heparin fibrillization; series mostly up to 57.7 µM; activity change, negative = decrease: at the top concentration
How it was run: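 Human K18 P301L tau (15 uM unlabeled plus 0.24 uM Alexa 594-labeled, final) in 100 mM sodium acetate pH 7 was mixed with compound and 20 uM heparin and incubated 6 hr at 37 C.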
% is scaled to controls: 0 for no effect and ±100 for the full control effect; potency is read from the fitted curve at half-maximal effect; tags tell the direction and shape of the fitted curve or compound fluorescence and quenching.

SMILES | activity change, negative = decrease | Potency
COc1ccc(NC(=O)C(c2ccc(C)cc2)N(C)C(=O)Cc2cccs2)cc1 (centres undefined) | inactive: -5.67% | –
Oc1ccccc1-c1nc(/C=C/c2ccccc2)nn1-c1ccccc1 | inactive: 3.47% | –
COc1ccccc1N1CCN(CC(O)COc2cccc3ccccc23)CC1 (centres undefined) | – | inactive
CO[C@@]1(NC(=O)Cc2cccs2)C(=O)N2C(C(=O)O)=C(COC(N)=O)CS[C@@H]21 | inactive: -15.5% | –
COc1ccc(COc2cc(-c3cccc(OC)c3)nc3ccc(NC(=O)c4ccccc4)cc23)cc1 | inactive: -21.2% | –
COc1cc(-c2ccc(N=Nc3ccc4c(S(=O)(=O)O)cc(S(=O)(=O)O)c(N)c4c3O)c(OC)c2)ccc1N=Nc1ccc2c(S(=O)(=O)O)cc(S(=O)(=O)O)c(N)c2c1O | – | active: 1 µM [quencher]
COc1ccc2c(c1)C(=O)[C@@H](OC(=O)Nc1ccc(C)c(Br)c1)[C@H](c1ccc(OC)c(Br)c1)O2 | inactive: -14.4% | –
Cc1ccc(-c2cc(C(=O)NCc3cnn(C)c3)c3cc(Br)ccc3n2)cc1 | inactive: -19.8% | –
N#CC(=C=[N-])c1nc2ccccc2nc1-[n+]1cccc(NC(=O)c2ccccc2)c1 | inactive: -27.2% | –
CCOC(=O)/C(C#N)=C/c1c(OCC)n(CC)c2ccccc12 | inactive: -25.5% | –
COc1ccc(C2=CC3=C(Br)C(=O)C(C)(O)C(=O)C3=CO2)cc1 (centres undefined) | inactive: -7.24% | –
COc1ccc(C(=O)Nc2ccc3nc(N4CCC(C)CC4)cc(C)c3c2)cc1 | – | active: 5.01 µM [quencher]
COc1cccc(-c2nc(SCC(=O)Nc3ccc4c(c3)OCCO4)c(-c3ccccc3)[nH]2)c1 | – | active: 5.62 µM [quencher]
COc1ccc2c(c1)O[C@@H](c1cccc(C(F)(F)F)c1)[C@H](OC(=O)Nc1ccc(OC(F)F)cc1)C2=O | inactive: -20.2% | –
COc1ccccc1OCC(=O)NNc1c2ccccc2nc2ccccc12 | – | active: 15.8 µM [quencher]
C[C@@H](NC(=O)/C(C#N)=C/c1ccc(O)c(O)c1)c1ccccc1 | inactive: -18.3% | –
O=C1Nc2ccc(Cl)cc2C(C#CC2CC2)(C(F)(F)F)O1 (centres undefined) | inactive: -25.2% | –
Cc1c(N=Cc2c(O)n(Cc3ccco3)c(=O)c3ccccc23)c(=O)n(-c2ccccc2)n1C | inactive: -27.7% | –
Cc1cccc(CSc2ccc(-c3cccs3)nn2)c1 | inactive: -27% | –
O=C(NCCc1c[nH]c2ccccc12)[C@@H]1C[C@H]1[C@@H](NP(=O)(c1ccccc1)c1ccccc1)c1ccccc1 | inactive: 3.7% | –
COc1ccc(NC(=S)N(CCc2c(C)[nH]c3ccccc23)Cc2ccco2)cc1 | – | active: 14.1 µM [quencher]

SMILES | activity change, negative = decrease | Potency
CCN(CCCNC(=O)c1cc2cc3cc(OC)ccc3nc2s1)c1cccc(C)c1 | – | active: 3.98 µM [quencher]
Cc1ccc(-c2[nH]c(-c3ccccc3)nc2SCC(=O)NCC2CCCO2)cc1 (centres undefined) | inactive: -8.55% | –
C[C@H]1CCC[C@@]2(O[C@@H](CCO)C[C@@H](O)[C@@H]2O)O1 | inactive: -0.466% | –
Cc1ccc(NC(=O)CCNS(=O)(=O)c2cccc3nonc23)cc1Cl | inactive: -25.1% | –
CCOc1ccc(NC(=O)CC2C(=O)N(c3ccccc3)C(=O)N2CCc2cccs2)cc1 (centres undefined) | inactive: -26.3% | –
Nc1ccccc1C#Cc1ccccc1 | inactive: -27.1% | –
CCCCC1=CC2=CC(=O)C(C)(OC(=O)CCc3ccccc3)C(=O)C2=CO1 (centres undefined) | inactive: -8.14% | –
CC(C)NC[C@H](O)c1ccc(O)c(O)c1 | – | inactive
O=C1c2cccc3cccc(c23)C(=O)N1CC1CCN(CC(O)COc2ccc3ccccc3c2)CC1 (centres undefined) | – | active: 15.8 µM [quencher]
CC[C@@]1(O)CC2CN(CCc3c([nH]c4ccccc34)[C@](C(=O)OC)(c3cc4c(cc3OC)N(C)C3[C@@](O)(C(=O)OC)C(OC(C)=O)[C@]5(CC)C=CCN6CC[C@@]43C65)C2)C1 (some centres undefined) | inactive: -21% | –
CCOC(=O)C1=C(C)NC(C)=C(C(=O)OCC)C1 | inactive: -10.3% | –
CCN(CC)c1ccc(/C=N/NC(=O)Nc2ccccc2)cc1 | – | active: 14.1 µM [quencher]
CC1(C)Oc2ccc3ccc(=O)oc3c2C[C@H]1O | inactive: 5.81% | –
CC(C)c1ccc(CNc2nc(-c3ccco3)nn2C(=O)c2ccc([N+](=O)[O-])cc2)cc1 | – | active: 15.8 µM [quencher]
COCC(=O)O[C@]1(CCN(C)CCCc2nc3ccccc3[nH]2)CCc2cc(F)ccc2[C@@H]1C(C)C | – | inactive
N#C/C(=C\Nc1ccccc1O)c1nc2ccccc2o1 | – | active: 17.8 µM [quencher]
COc1cccc(Nc2nc(-c3sc(N)nc3C)cs2)c1 | – | active: 14.1 µM [quencher]
O=C(NCc1ccco1)/C(=C/c1ccco1)NC(=O)c1ccco1 | inactive: -11% | –
O=C1NC(=O)/C(=C/c2ccc(N3CCOCC3)o2)N1 | inactive: -17.8% | –
CC(C)C[C@H](NC(=O)c1[nH]cnc1C(=O)N[C@@H](C)c1ccccc1)C(=O)OCc1ccccc1 | inactive: -20.5% | –
NC(C(=O)O)c1cc(O)cc(O)c1 (centres undefined) | inactive: -3.99% | –

SMILES | activity change, negative = decrease | Potency
CN1C(=CC=C2C=C(I)C(=O)C(I)=C2)C(C)(C)c2ccccc21 | – | active: 0.708 µM [fluorescent]
O=C(NCc1nc2ccccc2[nH]1)C1=C[C@@H](c2ccc3c(c2)OCO3)C[C@@H](OCc2ccc(CO)cc2)O1 | inactive: -15.3% | –
COc1ccc(-c2nc3ccc(NS(=O)(=O)c4ccc(C)cc4)cc3o2)cc1 | – | active: 15.8 µM [quencher]
Oc1[nH]c2ccccc2c1N=NC(=S)NCCc1ccccc1 | – | active: 12.6 µM [quencher]
Cc1cccc2sc(N(CCCN(C)C)C(=O)c3ccc(Cl)s3)nc12 | inactive: -29% | –
O=C(Nc1ccc(F)c(Cl)c1)N1CC=C(c2c[nH]c3ccccc23)CC1 | – | active: 7.94 µM [quencher]
CCOC(=O)CCN1C(=O)[C@H]2[C@H]3[C@H](O)[C@H](O)C/C(=N/OCc4ccccc4)[C@@H]3CC[C@@H]2C1=O | inactive: -3.65% [at 11.6 µM] | –
CCn1c2ccccc2c2cc(NC(=O)Cc3ccc(S(=O)(=O)N4CCOCC4)s3)ccc21 | – | active: 7.94 µM [quencher]
COC(=O)c1sc(S(=O)(=O)N2CCN(c3ccc(OC)cc3)CC2)c(C(=O)OC)c1C | inactive: -7.94% | –
CC(C)S(=O)(=O)c1csc(NC(=O)Nc2ccc(Cl)cc2)c1 | – | active: 15.8 µM [quencher]
NS(=O)(=O)c1ccc(Nc2nc(-c3ccccc3)cs2)cc1 | – | active: 15.8 µM [quencher]
COC(=O)C1(C(=O)OC)Cc2conc2[C@H]1c1ccccc1 | – | inactive
N#C/C(=C\c1ccc(O)c(O)c1)C(=O)NCc1ccccc1 | – | inactive
Nc1ccc(CCNc2ncnc3c2ncn3C2OC(CO)C(O)C2O)cc1 (centres undefined) | inactive: -2.4% | –
OC(CN1CCN(c2cccc(Cl)c2)CC1)C(c1ccccc1)c1ccccc1 (centres undefined) | – | inactive
O=c1[nH]c(=O)n([C@H]2C[C@H](O)[C@@H](CO)O2)cc1Br | inactive: -6.87% | –
COc1cccc(Nc2nc(-c3cccc(N4C(=O)c5ccccc5C4=O)c3)cs2)c1 | – | active: 7.94 µM [quencher]
CC(=O)Nc1ccc(S(=O)(=O)N2CCN(c3nc(NC4CCCC4)c4ccccc4n3)CC2)cc1 | – | active: 14.1 µM [quencher]
CO/N=C(/C(=O)NC1C(=O)N2C(C(=O)O)=C(CSc3nc(=O)c(O)nn3C)CSC12)c1csc(N)n1 (centres undefined) | – | inactive
CC(Cc1ccc(O)c(O)c1)(NN)C(=O)O (centres undefined) | inactive: -23.8% | –
Cc1ccc(C)c(NC(=O)CN(C)S(=O)(=O)c2cccc3cccnc23)c1 | inactive: -5.38% | –

SMILES | activity change, negative = decrease | Potency
COCCN=C1OC(=O)N2C(=O)C3=C4[C@@H](C[C@H]5C(=O)N(c6ccccc6)C(=O)[C@H]5[C@H]4[C@@]12Cc1ccccc1)[C@H]1C(=O)N(c2ccccc2)C(=O)[C@H]1[C@H]3C | inactive: -4.81% | –
Cc1ccc(-c2cc(N)n(-c3ccc(C)cc3)n2)cc1 | inactive: -20.4% | –
CN(Cc1cnc2nc(N)nc(N)c2n1)c1ccc(C(=O)N[C@@H](CCC(=O)O)C(=O)O)cc1 | – | inactive
COc1cccc(-c2nc(SCC(=O)Nc3ccc4c(c3)OCO4)c(-c3ccccc3)[nH]2)c1 | – | active: 7.94 µM [quencher]
COc1ccc(Cl)cc1NC(=O)CCc1nc(-c2ccccc2F)no1 | inactive: -25.2% | –
CCCCC1=CC2=C(c3ccco3)C(=O)C(C)(OC(=O)c3ccc(OC)cc3)C(=O)C2=CN1CC1CC1 (centres undefined) | inactive: -6.8% [at 11.6 µM] | –
Cn1cc(C(=O)NCc2ccc(F)cc2)c(=O)c2cc(S(=O)(=O)N3CCCCC3)ccc21 | inactive: -27.1% | –
CCOC(=O)C1CCN(c2nc(-c3ccc(Br)cc3)nc3ccccc23)CC1 | inactive: -14.8% | –
CC(C)c1ccc2c(c1)c(SC(C)(C)C)c(CC(C)(C)C(=O)O)n2Cc1ccc(Cl)cc1 | inactive: -10.8% | –
COc1cc(C)c(C(=O)Oc2cc(C)c(C(=O)O)c(O)c2C)c(OC)c1C | inactive: -7.31% | –
O=C(Cn1c[n+](CC(=O)c2ccc([N+](=O)[O-])cc2)cn1)c1ccc([N+](=O)[O-])cc1 | inactive: -23.1% | –
O=C(COC(=O)CCc1c[nH]c2ccccc12)NC(c1ccccc1)c1ccccc1 | – | active: 14.1 µM [quencher]
COc1ccc(O)c(C2=Nc3ccccc3N=C(c3ccccc3)C2)c1 | inactive: -29.6% | –
COc1cccc([C@@H]2Oc3ccc(OC)cc3C(=O)[C@H]2OC(=O)NCc2ccc3c(c2)OCO3)c1 | inactive: -11.7% | –
COc1cc([C@@H]2Nc3c(F)cccc3[C@@H]3C=CC[C@@H]32)cc(Br)c1OC | inactive: -15.9% | –
CCCOC(=O)c1ccc(Oc2cn[nH]c2-c2ccc(OC)cc2O)cc1 | – | active: 11.2 µM [quencher]
O=C(NCc1nc2ccccc2[nH]1)C1=C[C@H](c2ccc(Br)cc2)C[C@H](OCc2ccc(CO)cc2)O1 | inactive: -24.7% | –
COc1ccc(-c2n[nH]c(=S)n2/N=C/C=C\c2ccccc2OC)cc1 | inactive: -21% | –
CCOC(=O)c1nc(Nc2ccc(C(=O)OC)cc2)c2ccccc2n1 | inactive: -18.7% | –
CCN(CC)S(=O)(=O)c1ccc2[nH]cc(C(=O)NCCc3ccccc3)c(=O)c2c1 | inactive: -27.8% | –
CCC1=C(OC(=O)N(CC)CC)N2C(=O)OC(=NCCc3c[nH]c4ccccc34)[C@]2(Cc2ccccc2)[C@H]2C1=CC[C@H]1C(=O)N(c3ccccc3)C(=O)[C@H]12 | inactive: -10.9% | –
